Data reported in the supplement of paper PMC4604168 (melanoma cell lines).
This is one part of the list. Single values are uncertain, as repeats are few or missing.

Experiments:
Assay in all cases: cell count relative to DMSO control; melanoma cells; higher = more viable cells
Details in all cases: library dose: low library concentration; 72 h
MZ2-MEL = tested on: MZ2-MEL
MeWo = tested on: MeWo
RPMI7951 = tested on: RPMI7951
RVH-421 = tested on: RVH-421
SkMel28 = tested on: SkMel28
SkMel30 = tested on: SkMel30
UACC62 = tested on: UACC62
WM115 = tested on: WM115
WM1716 = tested on: WM1716
WM1745 = tested on: WM1745
WM3526 = tested on: WM3526
WM3619 = tested on: WM3619
WM451Lu = tested on: WM451Lu
SkMel2 = tested on: SkMel2
SkMel5 = tested on: SkMel5
UACC257 = tested on: UACC257
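Also: cell number obtained by counting DAPI-stained nuclei in high-throughput microscope images with image analysis software, screen run in 1,536-well plates.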

SMILES | cell count (MZ2-MEL) [%] | cell count (MeWo) [%] | cell count (RPMI7951) [%] | cell count (RVH-421) [%] | cell count (SkMel28) [%] | cell count (SkMel30) [%] | cell count (UACC62) [%] | cell count (WM115) [%] | cell count (WM1716) [%] | cell count (WM1745) [%] | cell count (WM3526) [%] | cell count (WM3619) [%] | cell count (WM451Lu) [%] | cell count (SkMel2) [%] | cell count (SkMel5) [%] | cell count (UACC257) [%]
CCCCCCCCc1ccc(CCC(N)(CO)CO)cc1 [fingolimod] + CO[C@H]1C[C@@H]2CC[C@@H](C)[C@@](O)(O2)C(=O)C(=O)N2CCCC[C@H]2C(=O)O[C@H]([C@H](C)C[C@@H]2CC[C@@H](OCCO)[C@H](OC)C2)CC(=O)[C@H](C)/C=C(\C)[C@@H](O)[C@@H](OC)C(=O)[C@H](C)C[C@H](C)/C=C/C=C/C=C/1C [everolimus] (first compound 2 µM, partner dose 0.02 µM) | 83.7 | 75.2 | 64.5 | 88.6 | 48.6 | 70.7 | 62 | 74.8 | 60.6 | 75.7 | 60 | 65.9 | 88.2 | – | – | –
CCCCCCCCc1ccc(CCC(N)(CO)CO)cc1 [fingolimod] + Cc1ccc(NC(=O)c2cccc(N(C)C)c2)cc1NC(=O)c1ccc(O)cc1 [ZM336372] (first compound 2 µM, partner dose 2 µM) | – | 94.8 | 79.5 | 99.6 | 82.6 | 88.7 | 62.1 | 83.9 | 83.2 | 72.2 | 83.5 | 96.2 | 87.4 | 90.3 | 84.7 | 89
CC(C)(C)c1cnc(CSc2cnc(NC(=O)C3CCNCC3)s2)o1 + O=S(=O)(c1ccccc1)N(CC(F)(F)F)c1ccc(C(O)(C(F)(F)F)C(F)(F)F)cc1 [T0901317] (first compound 0.01 µM, partner dose 1.4 µM) | – | 88.7 | 79.3 | 96.4 | 78.1 | 91.9 | 83.7 | 88 | 83.5 | 96.1 | 85.6 | 103 | 96.3 | – | 78.3 | 76.8
NC(=O)c1ccc(N(C(N)=O)c2c(F)cccc2F)nc1-c1ccc(F)cc1F + CCc1ccc(CCOc2ccc(CC3SC(=O)NC3=O)cc2)nc1 [pioglitazone] (first compound 0.4 µM, partner dose 2 µM) | – | 113 | 90.8 | 114 | 106 | 90.9 | 103 | 97.7 | 104 | 103 | 99.5 | 77.5 | 88.5 | – | 109 | 88.3
NC(=O)c1ccc(N(C(N)=O)c2c(F)cccc2F)nc1-c1ccc(F)cc1F + CO[C@H]1C[C@@H]2CC[C@@H](C)[C@@](O)(O2)C(=O)C(=O)N2CCCC[C@H]2C(=O)O[C@H]([C@H](C)C[C@@H]2CC[C@@H](OCCO)[C@H](OC)C2)CC(=O)[C@H](C)/C=C(\C)[C@@H](O)[C@@H](OC)C(=O)[C@H](C)C[C@H](C)/C=C/C=C/C=C/1C [everolimus] (first compound 0.4 µM, partner dose 0.02 µM) | – | 60.9 | 79.4 | 70 | 52.4 | 57.9 | 65.4 | 78.2 | 90.7 | 81.4 | 76.3 | 75 | 88.6 | – | – | –
CCCCCCCCc1ccc(CCC(N)(CO)CO)cc1 [fingolimod] + CN(c1ncccc1CNc1nc(Nc2ccc3c(c2)CC(=O)N3)ncc1C(F)(F)F)S(C)(=O)=O [PF562271] (first compound 2 µM, partner dose 0.08 µM) | – | 83.4 | 51 | 91.1 | 71.1 | 104 | 81.7 | 81.8 | 83.3 | 63.5 | 92.9 | 72.7 | 85.1 | – | – | –
CCCCCCCCc1ccc(CCC(N)(CO)CO)cc1 [fingolimod] + CNC(=O)c1cc(Oc2ccc(NC(=O)Nc3ccc(Cl)c(C(F)(F)F)c3)cc2)ccn1 [sorafenib] (first compound 2 µM, partner dose 0.4 µM) | 75.3 | 85.7 | 67.3 | 115 | 91.4 | 84 | 79.5 | 86.9 | 72.7 | 77.7 | 79.7 | 109 | 104 | – | – | –
Cc1ccc(NC(=O)c2cccc(N(C)C)c2)cc1NC(=O)c1ccc(O)cc1 + Oc1cc(-c2nc(-c3ccccc3)[nH]c2-c2ccncc2)ccc1Cl [L779450] (first compound 2 µM, partner dose 0.2 µM) | – | 111 | 98.3 | 77.9 | 73.4 | 104 | 65.4 | 86.3 | 95.2 | 88.1 | 73 | 96.8 | 105 | – | 89.8 | 71.7
CN(NC(=O)CC(=O)NN(C)C(=S)c1ccccc1)C(=S)c1ccccc1 + c1cc(-c2cnn3cc(-c4ccc(OCCN5CCCCC5)cc4)cnc23)ccn1 [Dorsomorphin] (first compound 0.006 µM, partner dose 0.4 µM) | – | 96.7 | 86.6 | 73.8 | 80 | 98.8 | 87.7 | 74.3 | 70.9 | 51.4 | 93 | 53.4 | 112 | – | 88.5 | 70.7
COc1cc2c(Oc3ccc4[nH]c(C)cc4c3F)ncnc2cc1OCCCN1CCCC1 [cediranib] + O=c1cc(-c2cccc3c2Sc2ccccc2S3)oc(N2CCOCC2)c1 [KU55933] (first compound 0.4 µM, partner dose 1 µM) | – | 97.4 | 107 | 105 | 95.1 | 126 | 102 | 107 | 107 | 111 | 105 | 114 | 98.4 | – | 102 | 92.3
CCc1ccc(CCOc2ccc(CC3SC(=O)NC3=O)cc2)nc1 (stereo not drawn) [pioglitazone] + COC(=O)c1sccc1S(=O)(=O)Nc1ccc(Nc2ccccc2)cc1OC [GSK0660] (first compound 2 µM, partner dose 1 µM) | 96.8 | 115 | 101 | 86.8 | 92 | 92.7 | 98.8 | 101 | 96.6 | 105 | 103 | 98.6 | 90.5 | – | 103 | 76.6
CCCCCCCCc1ccc(CCC(N)(CO)CO)cc1 [fingolimod] + Cn1c(Nc2ccc(C(F)(F)F)cc2)nc2cc(Oc3ccnc(-c4ncc(C(F)(F)F)[nH]4)c3)ccc21 [CHIR265] (first compound 2 µM, partner dose 0.08 µM) | 72.8 | 64.3 | 43.1 | 55.4 | 56.3 | 52.8 | 39 | 55.5 | 63.6 | 70.5 | 45.1 | 55.6 | 104 | – | – | –
NC(=O)c1ccc(N(C(N)=O)c2c(F)cccc2F)nc1-c1ccc(F)cc1F + Oc1nc(-c2ccc(C(F)(F)F)cc2)nc2c1CSCC2 [XAV939] (first compound 0.4 µM, partner dose 2 µM) | – | 102 | 89.7 | 85.6 | 84.6 | 99.7 | 92.7 | 85.3 | 70.5 | 86.5 | 98.4 | 99.4 | 88.2 | 98.9 | 92.2 | 73.2
COc1cc2c(Oc3ccc4[nH]c(C)cc4c3F)ncnc2cc1OCCCN1CCCC1 [cediranib] + O=C(Nc1ccccc1)c1cc([N+](=O)[O-])ccc1Cl [GW9662] (first compound 0.4 µM, partner dose 2 µM) | 101 | 90.8 | 98.4 | 94.9 | 87.7 | 93.7 | 87.9 | 113 | 96.9 | 89.9 | 95.3 | 143 | 110 | – | 104 | 103
CCCCCCCCc1ccc(CCC(N)(CO)CO)cc1 [fingolimod] + O=c1cc(-c2cccc3c2Sc2ccccc2S3)oc(N2CCOCC2)c1 [KU55933] (first compound 2 µM, partner dose 1 µM) | – | 89.8 | 95.4 | 103 | 70.5 | 85.2 | 77 | 90.4 | 83.8 | 80.8 | 66.1 | 99.7 | 106 | – | 107 | 88
Cc1ccc(NC(=O)c2cccc(N(C)C)c2)cc1NC(=O)c1ccc(O)cc1 + CC(C)(C)c1cnc(CSc2cnc(NC(=O)C3CCNCC3)s2)o1 [SNS-032] (first compound 2 µM, partner dose 0.01 µM) | – | 104 | 72.6 | 109 | 98.6 | 123 | 92.5 | 108 | 118 | 101 | 103 | 95.6 | 90.9 | – | 103 | 106
CCCCCCCCc1ccc(CCC(N)(CO)CO)cc1 [fingolimod] + CC(=O)c1c(C)c2cnc(Nc3ccc(N4CCNCC4)cn3)nc2n(C2CCCC2)c1=O [palbociclib] (first compound 2 µM, partner dose 0.04 µM) | 82.5 | 71.7 | 76 | 128 | 73.2 | 84.5 | 79.3 | 64.3 | 66.7 | 83.8 | 86.1 | 71.5 | 88 | – | – | –
CC(C)(C)c1cnc(CSc2cnc(NC(=O)C3CCNCC3)s2)o1 + COc1cc2ncnc(Nc3ccc(Oc4ccccc4)cc3)c2cc1OC [SrcI1] (first compound 0.01 µM, partner dose 2 µM) | – | 99.2 | 95.5 | 116 | 73.3 | 105 | 90.8 | 107 | 97.9 | 89.7 | 121 | 128 | 109 | – | 109 | 96
